The source of these data is article PMC9576782.

The chains behind the UniProt entries cited, without tags or fusion partners. Where a name states a change or a piece, a line headed by the entry shows the natural chain unless it says otherwise. A line that says so, or that is headed by a name, gives the form on record, which may keep a tag or linker. Residues count along the entry.
UniProt P05412: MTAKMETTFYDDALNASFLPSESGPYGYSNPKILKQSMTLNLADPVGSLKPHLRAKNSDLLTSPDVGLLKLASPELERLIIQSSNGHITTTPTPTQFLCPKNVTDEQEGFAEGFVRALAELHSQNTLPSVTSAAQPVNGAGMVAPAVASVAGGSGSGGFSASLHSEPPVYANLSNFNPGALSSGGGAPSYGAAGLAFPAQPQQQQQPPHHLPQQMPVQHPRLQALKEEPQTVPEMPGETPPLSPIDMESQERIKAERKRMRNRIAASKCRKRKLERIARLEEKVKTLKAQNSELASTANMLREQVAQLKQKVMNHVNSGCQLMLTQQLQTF
GST-c-JUN TAD 2TA (T91A/T93A, residues 1-151), phosphorylated by JNK1 (P05412, form named): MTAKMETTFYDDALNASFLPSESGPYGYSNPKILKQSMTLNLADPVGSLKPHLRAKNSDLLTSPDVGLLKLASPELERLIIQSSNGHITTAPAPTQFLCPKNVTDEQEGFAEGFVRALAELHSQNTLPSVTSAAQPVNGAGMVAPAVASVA
UniProt Q9NQB0: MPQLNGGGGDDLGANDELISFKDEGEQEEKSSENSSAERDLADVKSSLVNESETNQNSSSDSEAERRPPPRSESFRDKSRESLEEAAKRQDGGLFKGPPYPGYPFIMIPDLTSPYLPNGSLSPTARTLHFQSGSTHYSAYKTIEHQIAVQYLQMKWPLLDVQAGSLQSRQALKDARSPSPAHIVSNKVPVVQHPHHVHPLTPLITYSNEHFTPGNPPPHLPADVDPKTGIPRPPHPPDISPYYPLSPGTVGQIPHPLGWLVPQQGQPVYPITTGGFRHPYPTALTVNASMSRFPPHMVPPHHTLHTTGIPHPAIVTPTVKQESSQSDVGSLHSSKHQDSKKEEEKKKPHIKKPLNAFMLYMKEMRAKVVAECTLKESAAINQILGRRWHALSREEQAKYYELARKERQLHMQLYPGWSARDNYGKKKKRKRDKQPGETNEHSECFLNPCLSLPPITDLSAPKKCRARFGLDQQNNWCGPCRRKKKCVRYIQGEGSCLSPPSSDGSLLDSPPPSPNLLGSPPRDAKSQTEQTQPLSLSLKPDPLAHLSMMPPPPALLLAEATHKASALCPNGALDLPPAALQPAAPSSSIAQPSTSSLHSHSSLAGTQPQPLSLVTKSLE

The target in test [1] is GST-c-JUN TAD 2TA (T91A/T93A, residues 1-151), phosphorylated by JNK1 (human) (UniProt P05412). The test can be described thus: pull-down; 10 ug GST-c-JUN TAD (unphosphorylated, or phosphorylated by JNK1) on glutathione sepharose beads; purified recombinant MBD3 or TCF4, 3 h at 4 °C; 25 mM Hepes pH 7.5, 100 mM NaCl, 5 mM DTT, 10% glycerol; immunoblot; both purified.
In test [2] the target is Flag-tagged c-JUN 2SA (S63A/S73A) (UniProt P05412). As to the kind of experiment: co-IP; Flag-c-JUN wild-type or mutants transiently expressed in HCT116 cells treated with JNKi or additionally with anisomycin for the indicated times; anti-FLAG M2 magnetic beads, 16 h at 4 °C; immunoblot for endogenous TCF4. On the technique in general: Immunoblotting shows a protein as a band on a membrane.

Test [3] concerns the target Flag-tagged c-JUN 2TA (T91A/T93A) (UniProt P05412). The test is described as above.
For test [4], the target named is Flag-tagged c-JUN 4A (S63A/S73A/T91A/T93A) (UniProt P05412). The test is described as above.
Test [5] concerns the target Flag-tagged c-JUN wild-type (UniProt P05412). The test is described as above.
Test [6] has the same target. The test can be described thus: condition: only cells treated with anisomycin until c-JUN was completely phosphorylated; co-IP; as a3, cells treated with anisomycin until c-JUN was completely phosphorylated; anti-FLAG M2 magnetic beads, 16 h at 4 °C; immunoblot for endogenous TCF4.

No constants are given. Whether binding was seen depends on the method and setting. For part of these data: In cells and extracts the contact can be indirect. Some results given as binding are weak or reduced against the parent protein; the word gives no strength.

As for “recombinant human full-length TCF4 (residues 1-619) (from UniProt Q9NQB0 1-619)”, the binding entry in test [1] is listed as “binds”.

“TCF4 (TCF7L2), endogenous in HCT116 cell extracts (from UniProt Q9NQB0 1-619)”: the binding entry is recorded as “no binding” in test [2]; “binds” in test [3]; “no binding” in test [4]; “binds” in test [5]; “no binding” in test [6].
